Article PMC7819943, “Rice protein-binding microarrays: a tool to detect cis-acting elements near promoter regions in rice”
Some of the results follow.

target: T1, OsWOX13 (Oryza sativa, UniProt Q5QMM3 1-267); experiment: protein-binding microarray (RPBM); PBS, 2% BSA, 51.3 ng/ul salmon testes DNA, 50 uM zinc acetate, 200 nM TF, 25 C, 1 h; high values mean tight binding; settings: protein: recombinant; tags: N-terminal polyhistidine and DsRed monomer fusion (pET32a); label: CyDye5-dUTP incorporated in the synthesized complementary strand; 3' TTTTT single-stranded linker to array surface; dsDNA, one strand shown
T1 sequence: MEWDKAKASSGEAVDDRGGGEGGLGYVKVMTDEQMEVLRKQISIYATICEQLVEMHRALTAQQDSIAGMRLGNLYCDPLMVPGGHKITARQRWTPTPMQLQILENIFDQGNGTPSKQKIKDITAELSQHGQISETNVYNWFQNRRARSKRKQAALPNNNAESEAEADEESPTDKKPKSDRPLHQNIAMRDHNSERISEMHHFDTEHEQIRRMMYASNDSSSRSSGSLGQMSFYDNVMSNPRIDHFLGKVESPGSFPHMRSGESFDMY
In short: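 Polyhistidine-tagged DsRed fusions of transcription factors, joined at the N-terminus, were expressed in E. coli BL21-CodonPlus and isolated on Ni–NTA. They were incubated at 200 nM for 1 h at 25 °C on a custom Agilent array, double-stranded and BSA-blocked, in PBS with 2% BSA, salmon testes DNA and 50 µM zinc acetate. The binding signal is per-feature fluorescence intensity (arbitrary units) read on an Axon 4000B scanner after washing.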

Row | Sequence | binding signal
1 | GATGTGATTGGATTAATTTTCAAAAGTACTTTTATATGATCGGAGTCACCTAGTGCAG | 56300 fluorescence intensity (a.u.)
2 | GTTAACCAATCATATTCATGGTGGCAATGTTGGAGTGGGACGGAGTCACCTAGTGCAG | 8520 fluorescence intensity (a.u.)
3 | AACTCGATTAATTTACAGCAAATGTTCAGTTCATTTGTTGCGGAGTCACCTAGTGCAG | 21300 fluorescence intensity (a.u.)
4 | AGCAATTATCCAATAGATAAACACTACTCCGTTCGTTTATCGGAGTCACCTAGTGCAG | 6010 fluorescence intensity (a.u.)
5 | TTAAAATTGCTAACATCCGTCGTGGACATCTTAACGATCGCGGAGTCACCTAGTGCAG | 5140 fluorescence intensity (a.u.)
6 | TATGATATGTCAAATCCTATAATTTCTTCGTCCCAAAATGCGGAGTCACCTAGTGCAG | 3440 fluorescence intensity (a.u.)
7 | ATATAAATATGTAATTGTATAAGCTAAGATTATATTGTAGCGGAGTCACCTAGTGCAG | 6340 fluorescence intensity (a.u.)
8 | TTGGACAGCAGACAGCACATAATAGATTCTGATTGAATGTCGGAGTCACCTAGTGCAG | 18800 fluorescence intensity (a.u.)
9 | AATAGATTGATTGATTGATTGAATAATATAGATAGATTGACGGAGTCACCTAGTGCAG | 64400 fluorescence intensity (a.u.)
10 | TAAAATTGAATGAATCTATCATCATATGGACACATGAGGACGGAGTCACCTAGTGCAG | 32100 fluorescence intensity (a.u.)
11 | TTGTCAATTTCCATCAAATCAAGAGTTATCAATACCTACCCGGAGTCACCTAGTGCAG | 17000 fluorescence intensity (a.u.)
12 | AAACTCAATTAATCGCACGTAAATACCACCACGTTTTACGCGGAGTCACCTAGTGCAG | 10200 fluorescence intensity (a.u.)
13 | ATCTAATTTTACAAAATTTCAGTGGCACCCAGCCAATATCCGGAGTCACCTAGTGCAG | 6420 fluorescence intensity (a.u.)
14 | ATAAATCTTGTAATTAAAGAATTTTCAGGTGTTTCAGTGACGGAGTCACCTAGTGCAG | 6280 fluorescence intensity (a.u.)
15 | ACACTAACTGCCGAGATGTCGATCCCAATTCCACGTGTGGCGGAGTCACCTAGTGCAG | 7240 fluorescence intensity (a.u.)
16 | CATGACAGATAGCACGACAGGACTACAGGAGTGCTGCAGCCGGAGTCACCTAGTGCAG | 10400 fluorescence intensity (a.u.)
17 | ACAATAATTTTCCATTACAAAGGATTGAAGAGAAACAGGACGGAGTCACCTAGTGCAG | 17200 fluorescence intensity (a.u.)
18 | AGTAACTGGTTGATAGTCAACTTACGAGAATCTGCAAACGCGGAGTCACCTAGTGCAG | 7820 fluorescence intensity (a.u.)
19 | TTTGTTAATTAGCGGAGCCTAAGTGGAAATAAAGGCAGTACGGAGTCACCTAGTGCAG | 18600 fluorescence intensity (a.u.)
20 | CTCAATTGCTCGTCACTCGTCCCTCCACCGACACTGCTGGCGGAGTCACCTAGTGCAG | 3560 fluorescence intensity (a.u.)
21 | CCGGTTGTAATTTGTAAACTCATAATGAGATGAAAATGACCGGAGTCACCTAGTGCAG | 7770 fluorescence intensity (a.u.)

Row | Sequence | binding signal
22 | AATTAATCAGCAAGGAATGAATTAACAAACTTTTGCCATTCGGAGTCACCTAGTGCAG | 3710 fluorescence intensity (a.u.)
23 | CAAATTGTATACTGATATAGATATGCATCCCTCCCTGCATCGGAGTCACCTAGTGCAG | 6770 fluorescence intensity (a.u.)
24 | GCATGCAATTAACTATGACATCTAATCCTATTGGATGCATCGGAGTCACCTAGTGCAG | 14700 fluorescence intensity (a.u.)
25 | AAATTAATTAATTCAACAAGAAACTAAAGCAACTTTTAAACGGAGTCACCTAGTGCAG | 6050 fluorescence intensity (a.u.)
26 | GCACTAATTAACGGCTTGTAAAACGTGCTCGTAATAATTACGGAGTCACCTAGTGCAG | 18700 fluorescence intensity (a.u.)
27 | GCTAACGAAATCGAAATGATTGGAATACTTATAAACCCTGCGGAGTCACCTAGTGCAG | 27400 fluorescence intensity (a.u.)
28 | ACGAGGTTAATTACAATTAAAATTTTATGCTAGAATAATTCGGAGTCACCTAGTGCAG | 15900 fluorescence intensity (a.u.)
29 | GATAATAGAATTTCAGTTCAGACTAACAAATTAGGTACACCGGAGTCACCTAGTGCAG | 12700 fluorescence intensity (a.u.)
30 | TTCTCATTTTATTTAATTTAAAAGTAATTTATTACATGTTCGGAGTCACCTAGTGCAG | 11600 fluorescence intensity (a.u.)
31 | TCTGCCAATTTGACAATTGTACTTTTATTGTGTCACTGGTCGGAGTCACCTAGTGCAG | 5530 fluorescence intensity (a.u.)
32 | ACATCAATTGTAATCAAGGCATCGGAAAAGCAGGGTCCGGCGGAGTCACCTAGTGCAG | 6680 fluorescence intensity (a.u.)
33 | CACGCAAAACAAAGTTCATTTTATTGCATGATCAATTAAGCGGAGTCACCTAGTGCAG | 3990 fluorescence intensity (a.u.)
34 | CGAGCTAATTATCGCCATCGCCCGCCGCGATCTATATAAACGGAGTCACCTAGTGCAG | 6060 fluorescence intensity (a.u.)
35 | TGTAATTGAATAGAATACAATTAGGCTAATCTTGCGATAACGGAGTCACCTAGTGCAG | 28000 fluorescence intensity (a.u.)
36 | CAATTACAAATAATTAATCTTAACTACTACTCCACAGTGTCGGAGTCACCTAGTGCAG | 9810 fluorescence intensity (a.u.)
37 | ATACTTAAAATTAAATTAATATAATTTGTTTTCAGATTTTCGGAGTCACCTAGTGCAG | 10500 fluorescence intensity (a.u.)
38 | TCACATAAGATTGGGCCTAAATTGCACAAAGTGTCGTCTCCGGAGTCACCTAGTGCAG | 8200 fluorescence intensity (a.u.)
39 | AACTCATGATTAATTAAGTATTAACTATTTTAAATTTTAACGGAGTCACCTAGTGCAG | 8380 fluorescence intensity (a.u.)
40 | ACCATGTGAATTTAACTGTCAAAACTCCTAACTGCAACATCGGAGTCACCTAGTGCAG | 4060 fluorescence intensity (a.u.)
41 | TGTTCAGATTGATGCCATTTCAAACCATACCGGTTTTAGACGGAGTCACCTAGTGCAG | 18600 fluorescence intensity (a.u.)
42 | AATAATTTCATATTACTGACACTTCTAAAACCCCAACCACCGGAGTCACCTAGTGCAG | 12100 fluorescence intensity (a.u.)
